{"source": "PubChem BioAssay AID887", "about": "(National Center for Advancing Translational Sciences (NCATS), 2007)", "note": "About 1,100 (1.5%) of roughly 74,000 compounds were called active. The inconclusive results got no clear call from the source; some entries with a clear call stand among them for comparison. The call rests on the fitted dose curve; in most records, active means well fitted inhibition curve with a large enough effect; inconclusive means small, poorly fitted or top-dose-only effect; inactive means no such curve, though single readings can be large or run the other way. Potencies of inconclusive entries are left out as doubtful fits. On the % scale 0 is the no-effect control and ±100 the full control effect; potency means the concentration at half of the fitted maximal effect; tags describe the fitted curve by direction and shape."}
{"molecular_target": "Polyunsaturated fatty acid lipoxygenase ALOX15 (Homo sapiens) (UniProt P16050)", "sequence (P16050 whole entry, looked up)": "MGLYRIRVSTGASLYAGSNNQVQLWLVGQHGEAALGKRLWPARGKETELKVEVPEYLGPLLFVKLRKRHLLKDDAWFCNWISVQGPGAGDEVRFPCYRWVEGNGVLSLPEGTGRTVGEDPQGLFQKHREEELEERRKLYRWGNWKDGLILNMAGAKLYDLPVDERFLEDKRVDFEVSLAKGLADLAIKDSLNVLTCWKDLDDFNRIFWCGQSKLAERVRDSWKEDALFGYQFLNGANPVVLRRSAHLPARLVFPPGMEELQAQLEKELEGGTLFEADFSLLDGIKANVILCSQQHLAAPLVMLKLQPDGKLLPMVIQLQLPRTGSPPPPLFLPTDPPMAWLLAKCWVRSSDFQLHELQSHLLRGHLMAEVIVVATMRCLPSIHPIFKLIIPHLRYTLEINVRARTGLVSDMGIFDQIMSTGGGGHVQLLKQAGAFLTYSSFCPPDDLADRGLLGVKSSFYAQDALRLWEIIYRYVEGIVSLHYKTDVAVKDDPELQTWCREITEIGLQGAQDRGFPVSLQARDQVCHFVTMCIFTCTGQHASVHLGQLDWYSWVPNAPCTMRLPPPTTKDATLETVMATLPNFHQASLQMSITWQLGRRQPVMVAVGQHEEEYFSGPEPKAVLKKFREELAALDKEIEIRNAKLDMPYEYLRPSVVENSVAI", "experiment": "qHTS Assay for Inhibitors of 15-hLO (15-human lipoxygenase); further: nearly all actives have a fitted effect of over 55% in size", "details": "purified 15hLO-1, xylenol orange hydroperoxide absorbance; activity change, negative = inhibition: at 57.1 µM (top of the series) unless noted", "how_it_was_run": "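Purified human 15hLO-1 (40 nM) in 25 mM Hepes pH 7.5, 0.01% Triton X-100, preincubated 15 min RT with compound, then 50 uM arachidonic acid for 6 min. Hydroperoxide read by ferrous/xylenol orange, 30 min; 573/405 nm absorbance ratio gave progress.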"}
{"smiles": "Cc1ccc(CNc2ccc(N3CCOCC3)cc2)s1", "Potency": "active: 15.8 µM"}
{"smiles": "COc1ccc2[nH]cc(CCNc3ccnc(-c4ccccc4C)n3)c2c1", "Potency": "inconclusive [inhibitor, single point]"}
{"smiles": "COc1ccc2occ(C(=O)c3coc4ccc(O)c(CN(C)C)c34)c2c1", "Potency": "inconclusive [inhibitor, partial curve]"}
{"smiles": "c1csc(-c2csc3nc(CN4CCOCC4)nc(NCc4ccc5c(c4)OCO5)c23)c1", "Potency": "inactive"}
{"smiles": "Cc1cnc(CNc2ncncc2-c2cccc(C#N)c2)cn1", "Potency": "inconclusive [inhibitor, partial curve, poor fit]"}
{"smiles": "Cc1cc(=O)c2c(O)c(O)ccc2o1", "Potency": "inconclusive [inhibitor, full curve, poor fit]"}
{"smiles": "N#CC1=C(N)Oc2n[nH]c(-c3ccc(F)cc3)c2C1c1cccc(OC(=O)N2CCOCC2)c1", "note": "(stereo unspecified)", "Potency": "inconclusive [inhibitor, single point]"}
{"smiles": "COc1cc(C2Nc3cccc4cccc(c34)N2)ccc1OC(C)=O", "Potency": "inactive"}
{"smiles": "COc1ccc(-c2nc3c(c4c2CC(C)OC4)CN(CCC(C)C)CC3)cc1", "note": "(stereo unspecified)", "activity change, negative = inhibition": "inactive: -11.7% [at 11.4 µM]"}
{"smiles": "CC(C)CNc1oc(-c2ccc(F)cc2)nc1C#N", "Potency": "inconclusive [inhibitor, single point]"}
{"smiles": "Cc1ccc(C(=O)c2coc3ccc(O)c(CN4CCN(C)CC4)c23)cc1", "Potency": "inactive"}
{"smiles": "CC1CCC2C(=O)N3C(CCC(C)[C@@H]3c3cccc(N4CCOCC4)c3)C(=O)N2C1c1cccc(N2CCOCC2)c1", "note": "(stereo partly specified)", "activity change, negative = inhibition": "inactive: 5.11% [at 11.4 µM]"}
{"smiles": "CCOC(=O)C1(N(CC)CC)Sc2cc(C)ccc2NC1=O", "note": "(stereo unspecified)", "Potency": "inconclusive [inhibitor, partial curve]"}
{"smiles": "Cc1ccc(CSC2=Nc3ccccc3C3=NC(CCC(=O)NCc4ccco4)C(=O)N23)cc1", "note": "(stereo unspecified)", "Potency": "inconclusive [inhibitor, single point]"}
{"smiles": "CN(C)c1ncc2nc(-c3cc(F)cc(F)c3)c(=O)n(-c3ccccc3)c2n1", "Potency": "inconclusive [inhibitor, single point]"}
{"smiles": "COC(=O)CSc1nnc(CCc2nc3ccccc3[nH]2)n1C", "Potency": "inconclusive [inhibitor, single point]"}
{"smiles": "COc1ccc(S(=O)(=O)NCCC(=O)NC2CCCCCCC2)cc1", "Potency": "inactive"}
{"smiles": "N#C[C@@H]1[C@@H]2C(=O)N(c3ccc4c(c3)OCCO4)C(=O)[C@@H]2C2c3ccccc3C=CN21", "note": "(stereo partly specified)", "Potency": "inconclusive [inhibitor, partial curve]"}
{"smiles": "CCCn1nnnc1SCC(=O)NCc1cccs1", "Potency": "inconclusive [inhibitor, full curve, poor fit]"}
{"smiles": "COc1cccc(NC(=O)COC(=O)c2cccnc2)c1", "Potency": "inactive"}
{"smiles": "CCSCCCC(=O)O", "activity change, negative = inhibition": "inactive: -3.13% [at 11.4 µM]"}
{"smiles": "OC[C@H](CCc1c[nH]c2ccccc12)c1c[nH]c2ccccc12", "Potency": "active: 3.16 µM"}
{"smiles": "Cc1noc(C)c1C(=O)Nc1ccccn1", "Potency": "inconclusive [inhibitor, single point]"}
{"smiles": "O=C1CC(c2ccc(F)c(Br)c2)C2=C(CCCC2=O)N1", "note": "(stereo unspecified)", "Potency": "inconclusive [inhibitor, partial curve]"}
{"smiles": "CC1=C(C#N)c2nc(N)c(C#N)c(C)c2/C1=C\\c1ccccc1", "Potency": "active: 39.8 µM"}
{"smiles": "COc1ccc(-c2cc3ccccc3oc2=O)cc1NC(=O)c1ccc(Br)o1", "Potency": "inconclusive [inhibitor, partial curve]"}
{"smiles": "Cc1ccc(CNC(=O)Nc2cccs2)cc1", "Potency": "inconclusive [inhibitor, partial curve]"}
{"smiles": "N#Cc1cccc(NC(=O)N2CC3(CCN(C(=O)c4ccco4)CC3)C2)c1", "Potency": "inactive"}
{"smiles": "CC[C@@H](C)[C@H]1O[C@]2(CC[C@@H]1C)C[C@@H]1C[C@H](C/C=C(/C)[C@H](O[C@@H]3C[C@H](OC)[C@H](O[C@@H]4C[C@H](OC)[C@@H](O)[C@H](C)O4)[C@H](C)O3)[C@@H](C)/C=C\\C=C3CO[C@@H]4[C@H](O)C(C)=C[C@@H](C(=O)O1)[C@]34O)O2", "note": "(tested in a mixture with another compound)", "Potency": "inconclusive [inhibitor, partial curve, poor fit]"}
{"smiles": "COc1ccc(/C=C/C(=O)c2cc(O)ccc2O)cc1", "Potency": "active: 20 µM"}
{"smiles": "Cc1cc(NS(=O)(=O)c2ccccc2)c(C)c(Cl)c1O", "Potency": "inconclusive [inhibitor, single point]"}
{"smiles": "COC(=O)c1[nH]c2ccc(Br)cc2c1NC(=O)CN1CCN(C2CCCCC2)CC1", "Potency": "inconclusive [inhibitor, single point]"}
{"smiles": "Cc1ccc2nc(NC(=O)C3CCCN(S(=O)(=O)c4cccc5nsnc45)C3)sc2c1", "note": "(stereo unspecified)", "Potency": "inconclusive [inhibitor, single point]"}
{"smiles": "COc1ccc(N2Cc3cccc(C(=O)N4CCN(C(=O)c5ccco5)CC4)c3C2=O)cc1", "Potency": "inconclusive [inhibitor, partial curve]"}
{"smiles": "COc1ccc(OC)c(C2CC(=O)N3CN(c4ccccc4)CSC3=C2C#N)c1", "note": "(stereo unspecified)", "Potency": "inconclusive [inhibitor, partial curve]"}
{"smiles": "COCCOC(=O)C1=C(C)NC2=C(C(=O)CC(C)(C)C2)C1c1cc2c(cc1Br)OCO2", "note": "(stereo unspecified)", "Potency": "inconclusive [inhibitor, partial curve]"}
{"smiles": "O=C(Nc1nc(-c2ccncc2)cs1)C1COc2ccccc2O1", "note": "(stereo unspecified)", "Potency": "inconclusive [inhibitor, partial curve]"}
{"smiles": "COc1ccc2cc3c(N)c(C(=O)N4CCCC4)sc3nc2c1", "Potency": "inconclusive [inhibitor, partial curve]"}
{"smiles": "C=CCn1c(=O)c2c3c(sc2n2c(Nc4ccc(OC)cc4)nnc12)CCCC3", "Potency": "inconclusive [inhibitor, partial curve]"}
{"smiles": "CC(C)(CO)Cc1cc(C(C)(C)C)c(O)c(C(C)(C)C)c1", "Potency": "inconclusive [inhibitor, partial curve]"}
{"smiles": "O=C(O)CCc1ccc(-c2ccc(F)cc2)n1Cc1ccco1", "Potency": "inactive"}
{"smiles": "CCc1cc2c(c(CC)n1)CCC(=O)N2Cc1ccc(-c2ccccc2-c2nn[nH]n2)cc1", "Potency": "inconclusive [inhibitor, single point]"}
{"smiles": "COc1ccccc1N1CCN(CCn2c(=O)[nH]c3c([nH]c4ccccc43)c2=O)CC1", "Potency": "inconclusive [inhibitor, partial curve, poor fit]"}
{"smiles": "N#CC1=C2SCN(c3ccccc3)CN2C(=O)CC1c1ccccc1Cl", "note": "(stereo unspecified)", "Potency": "inconclusive [inhibitor, partial curve]"}
{"smiles": "CCOC(=O)C1=C(C)N=c2s/c(=C/c3ccco3)c(=O)n2C1c1cccc(OC)c1", "note": "(stereo unspecified)", "Potency": "active: 15.8 µM"}
{"smiles": "O=C(Nc1ccccc1)C1=C(O)CC(c2ccco2)CC1=Nc1ccccc1", "note": "(stereo unspecified)", "Potency": "active: 3.16 µM"}
{"smiles": "O=C(c1cc(-c2ccco2)on1)N1CCc2ccccc2C1", "Potency": "active: 15.8 µM"}
{"smiles": "CC(C(=O)Nc1cccnc1)N1C(=O)c2ccccc2C1=O", "note": "(stereo unspecified)", "Potency": "inconclusive [inhibitor, single point]"}
{"smiles": "Cc1cc(C)c2cc(CN(CCO)C(c3nnnn3Cc3ccc(F)cc3)C(C)C)c(=O)[nH]c2c1", "note": "(stereo unspecified)", "Potency": "inconclusive [inhibitor, partial curve]"}
{"smiles": "COc1ccc(C(c2nnnn2Cc2ccccc2)N2CCN(c3ccccc3)CC2)cc1", "note": "(stereo unspecified)", "Potency": "inactive"}
{"smiles": "O=C1CC(N(O)c2ccccc2)C(=O)N1c1cc(Cl)cc(Cl)c1", "note": "(stereo unspecified)", "Potency": "inconclusive [inhibitor, partial curve]"}
{"smiles": "CCN(CCCNC(=O)C1CCN(S(=O)(=O)c2c(C)[nH]c(=O)[nH]c2=O)CC1)c1cccc(C)c1", "Potency": "inconclusive [inhibitor, partial curve]"}
{"smiles": "COc1ccc(CNc2cc(-c3ccccc3OC)ncn2)c(OC)c1", "Potency": "active: 25.1 µM"}
{"smiles": "COC(=O)NC(/C(C(=O)OC)=C(\\C)NCc1ccccc1)c1ccc2ccccc2c1", "note": "(stereo unspecified)", "Potency": "inconclusive [inhibitor, single point]"}
{"smiles": "Cc1ccc(C)c(OCC(=O)Nc2nonc2NC(=O)COc2cc(C)ccc2C)c1", "Potency": "inconclusive [inhibitor, partial curve]"}
{"smiles": "Cc1cc(Nc2cccc(F)c2)nc(-c2ccccc2O)n1", "Potency": "active: 10 µM"}
{"smiles": "c1ccc2c(c1)CNc1ccccc1C2", "Potency": "inconclusive [inhibitor, partial curve]"}
{"smiles": "CSc1ccccc1NC(=O)c1cccnc1", "Potency": "inconclusive [inhibitor, single point]"}
{"smiles": "O=C(CSC1=NS(=O)(=O)c2ccccc21)Nc1ccccc1", "Potency": "inactive"}
{"smiles": "Cc1ccc(-c2nc3cnccn3c2Nc2ccccc2)o1", "Potency": "inconclusive [inhibitor, partial curve]"}
{"smiles": "COc1ccc(C2C3=C(CCCC3=O)Nc3nc(SCc4ccc(C(=O)O)cc4)nn32)cc1OC", "note": "(stereo unspecified)", "Potency": "inconclusive [inhibitor, full curve, poor fit]"}
{"smiles": "CN(C)c1ccc(-c2cncnc2-n2ccnc2)cc1", "Potency": "inconclusive [inhibitor, single point]"}
{"smiles": "Cc1ccc(CSC2=Nc3ccccc3C3=NC(CC(=O)NCc4ccco4)C(=O)N23)cc1", "note": "(stereo unspecified)", "Potency": "inconclusive [inhibitor, partial curve]"}
{"smiles": "Cc1ccc(Nc2nc(N)nc(CN3CCCCCC3)n2)c(C)c1", "Potency": "inconclusive [inhibitor, single point]"}
{"smiles": "O=C(O)[C@H]1CN[C@H](C(=O)O)C1", "Potency": "inconclusive [inhibitor, single point]"}
{"smiles": "COc1ccc2c(c1)C1(Nc3ccccc3-c3nc4ccccc4n31)C(=O)N2", "note": "(stereo unspecified)", "Potency": "inconclusive [inhibitor, partial curve]"}
